Results as given in PMC4336329 (PLoS ONE, 2015).
About 14,000 (4.5%) of roughly 310,000 compounds showed an effect of 50% or more. The effect is printed as a negative number. The list shows a part of the results.

These molecules were tested against human ether-à-go-go-related gene (hERG) potassium channel (human, UniProt Q12809) (assay: primary screen, population patch clamp on CHO cells stably expressing hERG).
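Further: peak tail current of the secondary pulse compared with the same well before compound.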

Chain of human ether-à-go-go-related gene (hERG) potassium channel (Q12809 whole entry, looked up): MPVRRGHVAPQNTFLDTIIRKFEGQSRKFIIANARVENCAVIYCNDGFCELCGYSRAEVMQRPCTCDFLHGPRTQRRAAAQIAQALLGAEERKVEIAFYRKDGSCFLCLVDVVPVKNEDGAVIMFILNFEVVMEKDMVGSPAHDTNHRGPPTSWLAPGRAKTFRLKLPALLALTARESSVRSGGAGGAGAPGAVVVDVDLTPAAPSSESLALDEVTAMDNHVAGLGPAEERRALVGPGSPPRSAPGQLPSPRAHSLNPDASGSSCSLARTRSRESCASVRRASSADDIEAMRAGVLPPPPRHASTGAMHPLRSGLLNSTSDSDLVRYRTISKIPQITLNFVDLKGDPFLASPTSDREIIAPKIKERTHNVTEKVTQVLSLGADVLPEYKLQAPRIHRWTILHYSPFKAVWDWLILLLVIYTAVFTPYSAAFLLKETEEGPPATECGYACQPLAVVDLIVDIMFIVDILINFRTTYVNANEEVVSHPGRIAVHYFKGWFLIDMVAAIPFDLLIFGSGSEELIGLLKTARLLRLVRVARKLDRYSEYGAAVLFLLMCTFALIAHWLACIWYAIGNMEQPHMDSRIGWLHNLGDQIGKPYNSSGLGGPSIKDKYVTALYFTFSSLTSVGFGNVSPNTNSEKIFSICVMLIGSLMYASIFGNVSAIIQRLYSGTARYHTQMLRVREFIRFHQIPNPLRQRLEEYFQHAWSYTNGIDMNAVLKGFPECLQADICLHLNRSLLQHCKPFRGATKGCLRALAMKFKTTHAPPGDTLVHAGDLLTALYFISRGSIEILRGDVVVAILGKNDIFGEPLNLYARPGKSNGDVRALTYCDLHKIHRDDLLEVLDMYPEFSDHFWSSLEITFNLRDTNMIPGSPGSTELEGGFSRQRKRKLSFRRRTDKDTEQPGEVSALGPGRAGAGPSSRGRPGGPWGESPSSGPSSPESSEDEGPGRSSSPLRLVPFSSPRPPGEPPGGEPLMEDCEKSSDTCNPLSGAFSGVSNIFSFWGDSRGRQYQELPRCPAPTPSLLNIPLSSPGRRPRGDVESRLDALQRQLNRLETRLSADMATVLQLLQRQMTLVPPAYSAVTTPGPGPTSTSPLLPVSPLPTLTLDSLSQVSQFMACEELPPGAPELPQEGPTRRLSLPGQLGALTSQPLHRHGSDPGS

Compound	hERG current change (%, negative = inhibition) at 10uM
CCN(CC)S(=O)(=O)c1ccc(N2CCOCC2)c(NC(=O)C2COc3ccccc3O2)c1 (stereo not drawn)	-4.79%
Cc1ncoc1C(=O)NC1CC(C)(C)Cc2c1cnn2-c1ccc(F)cc1 (stereo not drawn)	-20.7%
CSC1CCCCC1(O)CSc1nc2ccccc2o1 (stereo not drawn)	4.87%
O=C(C1CCN(S(=O)(=O)c2cnc[nH]2)CC1)N1CCN(c2ccc([N+](=O)[O-])cc2)CC1	-1.78%
CCc1c(C)nc(N)nc1N1N=C1SCC#N	-1.77%
Cn1c(CSc2ncn[nH]2)nc2ccccc21	4.54%
CCOC(=O)C1CCCN(C(=O)c2cc3cc(Br)ccc3oc2=O)C1 (stereo not drawn)	-2.16%
C=CCNc1nc2ccccc2nc1NS(=O)(=O)c1ccc(OC)cc1	4.7%
Cc1cnc(C(=O)OCC(=O)N2c3ccccc3CC2C)cn1 (stereo not drawn)	2.42%
Cc1noc(C)c1C(=O)OCC(=O)N(C)C1(C#N)CCCCC1	-9.75%
COc1cccc(CNC(=O)C2CCCN(S(=O)(=O)c3c(C)[nH]c(=O)[nH]c3=O)C2)c1 (stereo not drawn)	3.7%
COC(=O)CNC(=O)C(Cc1c[nH]c2ccccc12)NC(=O)Oc1ccccc1 (stereo not drawn)	4.19%
Cn1c(CNC(=O)c2ccc3c(c2)OCO3)nnc1SCC(=O)Nc1ccccc1Cl	-9.67%
CC(C)(C)[C@@H]1C=C(C(=O)NC2CC2)O[C@H](OCc2ccc(CO)cc2)C1	1.67%
Cc1ccc(C(=O)COC(=O)COc2ccccc2[N+](=O)[O-])s1	11.3%
O=C1NC(c2cccc([N+](=O)[O-])c2)=CCN1c1ccccc1O	4.45%
CN1C2C=C3C(C#N)=C(N)C(C#N)(C#N)[C@@H](c4ccsc4)[C@@H]3C1CC2 (stereo partly drawn)	-8.52%
COc1ccc(C2c3c(oc4ccc(Cl)cc4c3=O)C(=O)N2CCN2CCOCC2)cc1 (stereo not drawn)	-81.2%
Cc1cc(N2CCN(Cc3ccccc3)CC2)n2nc(C)c(-c3ccccc3)c2n1	-6.01%
O=C(CSc1nccn1Cc1ccccc1)NC1CCCC1	12.8%
CCC(NC(=O)NC1CCCCC1)c1ccccc1 (stereo not drawn)	-1.62%
Cc1cc(C)n(CC(=O)N/N=C/c2ccccn2)n1	16.4%

Compound	hERG current change (%, negative = inhibition) at 10uM
CC(=O)c1ccc(N=Nc2c(C)[nH][nH]c2=O)cc1	11.5%
CCOc1ncccc1C(=O)OCC(=O)N(CC(C)C)c1c(N)n(Cc2ccccc2)c(=O)[nH]c1=O	24.2%
Cc1ccc2sc(NC(=O)C3CC3)nc2c1C	3.92%
O=C(O)C1CCCCC1C(=O)NCCc1ccc(Cl)cc1 (stereo not drawn)	7.73%
O=C(NCc1ccncc1)Nc1ccccc1	6.89%
CN(C)c1ccc(S(=O)(=O)N(C)C)cc1NC(=O)Cc1cccc2ccccc12	0.545%
COc1ccc(NC(=O)CSc2nnc(CN3CCOCC3)n2C)cc1Cl	-6.51%
COCCCNC(=S)N(CCCN(C)C)Cc1cc2cc3c(cc2[nH]c1=O)OCCO3	-5.1%
O=C(N/N=C/c1cccnc1)c1ccc(NC(=O)c2ccccc2Cl)cc1	-5.91%
Cc1ccc(SCCNS(=O)(=O)c2ccc3c(c2)OCCO3)cc1	2.17%
N#C/C(=C\c1ccccc1[N+](=O)[O-])C(=O)NC1CCCCC1	-13.9%
Cn1c(=O)c2c(ncn2Cc2ccc(Cl)cc2)n(C)c1=O	-7.58%
O=C(NCCCO)c1nc2ccccc2s1	-12.8%
COc1ccc2cnn(-c3ccccc3)c(=O)c2c1OC	11.4%
COc1ccc(CC(NC(C)=O)C(=O)NC2CCN(C(=O)Nc3ccccc3Cl)CC2)cc1OC (stereo not drawn)	12.7%
COCc1cc(=O)n2c(-c3ccc(C)cc3)n[nH]c2n1	11.4%
Cc1c(C(=O)OCC(=O)c2c(N)n(CC(C)C)c(=O)n(C)c2=O)oc2ccccc12	-18.5%
O=C(CN1CCCCC1)Nc1ccccc1Oc1ccccc1	-31.7%
Cc1cc(N2CCN(C)CC2)nc2ccc(NC(=O)CCC(=O)NCCC3=CCCCC3)cc12	-11.9%
CC(=O)c1cccc(NC(=O)N2CCCCCC2)c1	1.5%
COC(=O)CNC(=O)/C=C/c1cc(Br)ccc1OC	10.4%
CC(C)CN1C(=O)C(=O)N(CC(=O)Nc2cc(Cl)ccc2Oc2ccccc2)C1=O	-9.89%

Compound	hERG current change (%, negative = inhibition) at 10uM
CN(CCO)c1cc(N2CCN(C(=O)c3ccco3)CC2)c2nonc2c1[N+](=O)[O-]	-39%
COc1ccc(CNC(=O)c2cnn3c(C(F)F)cc(C)nc23)cc1OC	12.2%
Cc1cc(C)nc(-n2ncc3c2CC(c2ccc(C(C)C)cc2)CC3=O)n1 (stereo not drawn)	-6.16%
COc1ccc(N(Cc2cc3ccccc3[nH]c2=O)C(=O)C2CCCO2)cc1 (stereo not drawn)	1.4%
Cc1csc(SCC(=O)c2c(N)n(CC(C)C)c(=O)n(C)c2=O)n1	-9.84%
COc1ccc(Cl)cc1NC(=O)COC(=O)/C=C/c1c(C)nn(C2CCS(=O)(=O)C2)c1Cl (stereo not drawn)	-0.68%
CC1Cc2cc(/C(O)=C3/C(=O)C(=O)N(CCN4CCOCC4)C3c3ccc(N(C)C)cc3)ccc2O1 (stereo not drawn)	23.7%
COc1ccc(NC(=S)NCCCN2CCCC2)cc1Cl	-3.97%
Cc1cc(S(=O)(=O)NC2CCCCC2)c(C)s1	-7.51%
CCc1noc(C)c1C(=O)Nc1nc(-c2ccc(OC)cc2OC)cs1	10.9%
Cc1cccc(C(=O)N2CCCCCC2)c1[N+](=O)[O-]	11%
CCOc1ccc(Nc2nc(N3CCCC3)nc(N3CCN(c4ccc(OC)cc4)CC3)n2)cc1	13.6%
Cc1ccc(S(=O)(=O)N(C)Cc2ccccc2)cc1C(=O)N1CCCCC1	-40.8%
CCOCCCNC(=O)C1CCN(Cc2ccc(OCc3ccccc3)c(OC)c2)CC1.O=C(O)C(=O)O	-43.3%
CCCOC(=O)c1ccc(Oc2coc3c(CN(CC)CC)c(O)ccc3c2=O)cc1	-22.7%
CC(C)(C)NC(=O)COc1ccc(CNCCc2ccccc2)cc1.Cl	6.24%
Cc1c(Cl)cnc(NC(=O)COC(=O)c2cc3c(s2)CCC(C)C3)c1Cl (stereo not drawn)	16.4%
O=C1NC(=O)/C(=C/c2ccco2)N1	10.5%
CN1CCN(CCCNC(=O)c2ccc(/C=C3\Oc4ccccc4N(Cc4ccccc4F)C3=O)cc2)CC1	6.08%
Cc1cc(NC(=O)CSc2nc(C3CC3)nc3sc4c(c23)CCC(C)C4)no1 (stereo not drawn)	10%
COc1ccc(C2=NO[C@@H]3[C@@H]4C[C@@H]([C@H]5C(=O)N(C)C(=O)[C@@H]45)[C@H]23)cc1	-22.4%
O=c1oc2ccccc2c(Nc2ccc3ncccc3c2)c1[N+](=O)[O-]	-12.8%

Compound	hERG current change (%, negative = inhibition) at 10uM
COc1ccc(-c2noc(CN3CCN(c4ccccc4F)CC3)n2)cc1OC	-10.4%
C=CCN(CC=C)C(=O)CN1C(=O)c2ccccc2C1=O	9.73%
COc1ccc(N2CCN(C(=O)COc3ccc4c(C)c(C)c(=O)oc4c3C)CC2)cc1	7.27%
COC(=O)c1ccc(OCc2nn[nH]n2)cc1	14.4%
Cc1ccc(S(=O)(=O)N2CCC(C(=O)N3CCC4(CC3)OCCO4)CC2)cc1	-12%
COc1ccc(CCN(Cc2ccccn2)C(=S)Nc2ccccc2F)cc1OC	-24.6%
Fc1cccc2sc(Nc3nc4c(F)cccc4s3)nc12	5.38%
NS(=O)(=O)c1ccc(NC(=O)COC(=O)CSCc2ccc(F)cc2)cc1	13.7%
O=C(OCc1ccccc1F)c1ccc2c(c1)OCCO2	7.26%
CN(C)C=Nc1ncc2c([nH]c3ccccc32)c1C#N	-4.57%
Cc1cc(C)c(C#N)c(SCc2ccc(C#N)cc2)n1	3.03%
CN(CC(=O)NCCc1ccc(F)cc1)Cc1cccs1	-14.7%
O=C(O)c1ccc(N2C(=O)CC(N3CCC(c4nc5ccccc5[nH]4)CC3)C2=O)cc1 (stereo not drawn)	4.95%
COc1ccc(CN2CCN(Cc3cccc4nonc34)CC2CCO)c(C)c1C (stereo not drawn)	-68.3%
O=[N+]([O-])c1cccc(-c2nnc3c4ccccc4c4ccccc4n23)c1	0.504%
CC(=O)Nc1ccc(SCCN2CC[C@@H](O)CCC2=O)cc1	4.8%
COc1ccccc1NC(=O)C(C)OC(=O)c1cccc(-n2cnnn2)c1 (stereo not drawn)	-35.2%
Cc1onc(-c2ccccc2Cl)c1C(=O)Nc1ccc(-n2nncc2-c2ccco2)cc1	-5.17%
COCCCNCCOCCOc1ccc(Cl)cc1Br.O=C(O)C(=O)O	-51.9%
CCOc1cc(/C=N\NC(=O)c2ccc(NC(=O)C(C)(C)C)cc2)ccc1OC(=O)c1cccc(C)c1	10%
O=C(CSc1nnc(-c2ccccc2Br)o1)N1CCN(C(=O)c2ccco2)CC1	-40.9%
